# The IC50 comes from the fitted curve, where viability falls to half of the control; a fit beyond the top or the lowest dose is shown as a bound at that dose. The AUC spans the tested range (256-fold, ending at the top dose) of the same fit; it is 1 without any effect and falls as sensitivity rises. An inferred top dose was derived from the fitted curves, not read from the paper.
# Tests used:
# Experiment in all cases: Viability of human cancer cell lines after 72 h of drug (GDSC screen)
# SGC0946 = compound: CC(C)N(CCCNC(=O)Nc1ccc(C(C)(C)C)cc1)C[C@H]1O[C@@H](n2cc(Br)c3c(N)ncnc32)[C@H](O)[C@@H]1O [SGC0946]; settings: top dose 0.5 µM; top dose inferred
# Protocol: (§1)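 Human cancer cell lines in 384-well plates, medium with 10% serum, drug for 72 h over a 256-fold dose range (nine 2-fold or five 4-fold steps up to the top dose). Adherent lines were fixed and stained with the nucleic acid dye Syto60, suspension lines read with resazurin; signal relative to control wells, capped at 0 and 100%. One two-parameter sigmoid per drug and line, fitted in a mixed model over all curves with the slope shared within a line.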
# GW-2580 = compound: COc1ccc(COc2ccc(Cc3cnc(N)nc3N)cc2OC)cc1 [GW-2580]; settings: top dose 20 µM; top dose inferred
# Protocol: as §1
# Lenalidomide = compound: Nc1cccc2c1CN(C1CCC(=O)NC1=O)C2=O [Lenalidomide]; settings: top dose 5 µM; top dose inferred
# Protocol: as §1
# Bryostatin 1 = compound: CCC/C=C/C=C/C(=O)O[C@H]1/C(=C/C(=O)OC)C[C@H]2C[C@H]([C@@H](C)O)OC(=O)C[C@H](O)C[C@@H]3C[C@H](OC(C)=O)C(C)(C)[C@](O)(C[C@@H]4C/C(=C/C(=O)OC)C[C@H](/C=C/C(C)(C)[C@]1(O)O2)O4)O3 [Bryostatin 1]; settings: top dose 0.008 µM; top dose inferred
# Protocol: as §1
Cell Line,AUC (SGC0946),IC50 (SGC0946) [nM],AUC (GW-2580),IC50 (GW-2580) [µM],AUC (Lenalidomide),IC50 (Lenalidomide) [µM],AUC (Bryostatin 1),IC50 (Bryostatin 1) [nM]
"BHT-101 (thyroid, adherent)",0.972,> 500,0.983,> 20,0.964,> 5,0.98,> 8
"BICR10 (head and neck, adherent)",0.983,> 500,0.984,> 20,0.979,> 5,0.961,> 8
"BICR22 (head and neck, adherent)",0.981,> 500,0.983,> 20,0.942,> 5,0.948,> 8
"BICR78 (head and neck, adherent)",0.98,> 500,0.978,> 20,0.964,> 5,0.983,> 8
"BT-20 (breast, adherent)",0.977,> 500,0.974,> 20,0.962,> 5,0.971,> 8
"BT-483 (breast, adherent)",0.965,> 500,0.973,> 20,0.978,> 5,0.974,> 8
"Becker (glioma, adherent)",0.977,> 500,0.972,> 20,0.952,> 5,0.983,> 8
"BxPC-3 (pancreas, adherent)",0.969,> 500,0.975,> 20,0.984,> 5,0.926,> 8
"C3A (liver, adherent)",0.987,> 500,0.988,> 20,0.988,> 5,0.915,> 8
"C32 (melanoma, adherent)",0.979,> 500,0.985,> 20,0.961,> 5,0.978,> 8
"C-33-A (cervix, adherent)",0.985,> 500,0.977,> 20,0.985,> 5,0.979,> 8
"CAKI-1 (kidney, adherent)",0.971,> 500,0.963,> 20,0.974,> 5,0.963,> 8
"CAL-12T (non-small cell lung carcinoma, adherent)",0.981,> 500,0.973,> 20,0.984,> 5,0.932,> 8
"CAL-27 (head and neck, adherent)",0.984,> 500,0.984,> 20,0.975,> 5,0.972,> 8
"CAL-29 (bladder, adherent)",0.973,> 500,0.982,> 20,0.981,> 5,0.984,> 8
"CAL-33 (head and neck, adherent)",0.977,> 500,0.985,> 20,0.918,> 5,0.965,> 8
"CAL-39 (cervix, adherent)",0.984,> 500,0.986,> 20,0.984,> 5,0.984,> 8
"CAL-51 (breast, adherent)",0.99,> 500,0.987,> 20,0.991,> 5,0.942,> 8
"CAL-72 (osteosarcoma, adherent)",0.982,> 500,0.967,> 20,0.98,> 5,0.945,> 8
"CAL-78 (chondrosarcoma, adherent)",0.985,> 500,0.983,> 20,0.986,> 5,0.964,> 8

Cell Line,AUC (SGC0946),IC50 (SGC0946) [nM],AUC (GW-2580),IC50 (GW-2580) [µM],AUC (Lenalidomide),IC50 (Lenalidomide) [µM],AUC (Bryostatin 1),IC50 (Bryostatin 1) [nM]
"CAL-85-1 (breast, adherent)",0.974,> 500,0.976,> 20,0.944,> 5,0.906,> 8
"CAL-120 (breast, adherent)",0.978,> 500,0.981,> 20,0.972,> 5,0.976,> 8
"CAS-1 (glioma, adherent)",0.978,> 500,0.959,> 20,0.981,> 5,0.889,> 8
"CCF-STTG1 (glioma, adherent)",0.983,> 500,0.988,> 20,0.988,> 5,0.987,> 8
"CCK-81 (large intestine, adherent)",0.982,> 500,0.99,> 20,0.98,> 5,0.989,> 8
"CESS (acute myeloid leukaemia, suspension)",0.988,> 500,0.991,> 20,0.99,> 5,0.991,> 8
"CFPAC-1 (pancreas, adherent)",0.982,> 500,0.984,> 20,0.975,> 5,0.971,> 8
"CGTH-W-1 (thyroid, adherent)",0.981,> 500,0.984,> 20,0.979,> 5,0.977,> 8
"CHL-1 (melanoma, adherent)",0.986,> 500,0.985,> 20,0.978,> 5,0.967,> 8
"CHP-212 (neuroblastoma, adherent)",0.98,> 500,0.987,> 20,0.904,> 5,0.947,> 8
"CHSA0011 (chondrosarcoma, adherent)",0.971,> 500,0.97,> 20,0.978,> 5,0.98,> 8
"CHSA0108 (chondrosarcoma, adherent)",0.981,> 500,0.982,> 20,0.981,> 5,0.98,> 8
"CHSA8926 (chondrosarcoma, adherent)",0.975,> 500,0.978,> 20,0.972,> 5,0.953,> 8
"CMK (acute myeloid leukaemia, suspension)",0.99,> 500,0.991,> 20,0.991,> 5,0.991,> 8
"COLO-205 (large intestine, suspension)",0.986,> 500,0.984,> 20,0.975,> 5,0.968,> 8
"COLO-668 (small cell lung carcinoma, adherent)",0.988,> 500,0.978,> 20,0.975,> 5,0.989,> 8
"COLO-678 (large intestine, semi-adherent)",0.983,> 500,0.984,> 20,0.983,> 5,0.98,> 8
"COLO-679 (melanoma, adherent)",0.983,> 500,0.982,> 20,0.984,> 5,0.983,> 8
"COLO-680N (oesophagus, adherent)",0.985,> 500,0.976,> 20,0.963,> 5,0.973,> 8
"COLO-783 (melanoma, adherent)",0.974,> 500,0.99,> 20,0.984,> 5,0.989,> 8

Cell Line,AUC (SGC0946),IC50 (SGC0946) [nM],AUC (GW-2580),IC50 (GW-2580) [µM],AUC (Lenalidomide),IC50 (Lenalidomide) [µM],AUC (Bryostatin 1),IC50 (Bryostatin 1) [nM]
"COLO-800 (melanoma, adherent)",0.985,> 500,0.97,> 20,0.983,> 5,0.988,> 8
"COLO-824 (breast, adherent)",0.985,> 500,0.988,> 20,0.985,> 5,0.985,> 8
"COR-L23 (large cell lung carcinoma, adherent)",0.986,> 500,0.986,> 20,0.988,> 5,0.967,> 8
"COR-L88 (small cell lung carcinoma, adherent)",0.984,> 500,0.951,> 20,0.975,> 5,0.983,> 8
"CP50-MEL-B (melanoma, adherent)",0.973,> 500,0.988,> 20,0.988,> 5,0.956,> 8
"CP66-MEL (melanoma, adherent)",0.984,> 500,0.979,> 20,0.982,> 5,0.887,> 8
"CPC-N (small cell lung carcinoma, suspension)",0.973,> 500,0.974,> 20,0.883,> 5,0.985,> 8
"CS1 (bone, adherent)",0.977,> 500,0.958,> 20,0.984,> 5,0.982,> 8
"CTB-1 (B-cell lymphoma, suspension)",0.976,> 500,0.948,> 20,0.939,> 5,0.977,> 8
"CTV-1 (acute myeloid leukaemia, suspension)",0.992,> 500,0.992,> 20,0.986,> 5,0.992,> 8
"CW-2 (large intestine, adherent)",0.988,> 500,0.989,> 20,0.989,> 5,0.989,> 8
"Ca9-22 (head and neck, adherent)",0.987,> 500,0.987,> 20,0.985,> 5,0.986,> 8
"Ca-Ski (cervix, adherent)",0.979,> 500,0.95,> 20,0.971,> 5,0.94,> 8
"CaR-1 (large intestine, adherent)",0.975,> 500,0.958,> 20,0.954,> 5,0.929,> 8
"Calu-3 (lung adenocarcinoma, adherent)",0.981,> 500,0.983,> 20,0.982,> 5,0.976,> 8
"Calu-6 (lung adenocarcinoma, adherent)",0.981,> 500,0.98,> 20,0.984,> 5,0.948,> 8
"Caov-4 (ovary, adherent)",0.976,> 500,0.98,> 20,0.98,> 5,0.98,> 8
"Capan-2 (pancreas, adherent)",0.982,> 500,0.984,> 20,0.984,> 5,0.98,> 8
"D-392MG (glioma, adherent)",0.975,> 500,0.975,> 20,0.964,> 5,0.977,> 8
"D-542MG (glioma, adherent)",0.955,> 500,0.982,> 20,0.984,> 5,0.841,7.44

# Reference: the supplement of paper PMC4967469
